Measurements taken from the domain aggregation screens of Martell et al. (2025).

Test: soluble fraction after stress (log2 fold change); higher = more stays soluble; pooled small domains, quantitative proteomics
Details: stress: 50 degC
Procedure, shortened: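 Custom libraries of small protein domains were pooled and measured in a high-throughput format, with quantitative proteomics as the read-out. Each library was stressed at 50°C. The value is the log2 fold change in the amount of each protein that stays soluble after stress, used as a measure of aggregation propensity; higher values mean more of the protein stays soluble.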

Point of comparison: “HMEGHVLRSPMVGTFYASSAPDKPAFVSVGQQVKEGETLAIIEAMKMFNPIEADKSGTIVAILG”, “soluble fraction (log2)” value 0.12. Against it:
- HMRRLQTIVYEKGLASTIKQARQMITHGHIFMNGHRVTVPGYLVTRAEESSIEFNPASPFTDEMHPM — lower, -1.84
- HMEETALAIGREVGYPVIIKAAGGGGGRGMRVVRNEAELAAAIALTKSEAGQFFKNDMVYMEKYL — within 0.2 log units, 0.143
